# Test results reported in the supplement of paper PMC8728848.
# This is one part of the list.
# What was measured:
# Test in all cases: glycan array binding signal (z-score within array); higher = stronger binding
# Conditions in all cases: glycan notation: IUPAC condensed, linker removed
# [1] = biological target: Kdn(a2-3)Gal(b1-3)GlcNAc
# Summary of the method: (§1)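 Arrays were curated from the Consortium for Functional Glycomics database, 3228 in total, and kept only where the protein sequence was available. Binding is expressed as a within-array Z-score. This score was averaged across arrays of the same protein sequence at different concentrations or buffers and across linkers, and negative values can be read as non-binding.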
# [2] = biological target: Kdn(a2-3)Gal(b1-4)Glc
# Summary of the method: as §1
# [3] = biological target: Kdn(a2-3)Gal(b1-4)GlcNAc
# Summary of the method: as §1
# [4] = biological target: Kdn(a2-3)Gal(b1-4)[Fuc(a1-3)]GlcNAc
# Summary of the method: as §1
# [5] = biological target: Kdn(a2-6)Gal(b1-4)GlcNAc
# Summary of the method: as §1
# [6] = biological target: Man(a1-2)Man(a1-2)Man(a1-3)Man
# Summary of the method: as §1
# [7] = biological target: Man(a1-2)Man(a1-2)Man(a1-6)[Man(a1-3)]Man
# Summary of the method: as §1
# [8] = biological target: Man(a1-2)Man(a1-3)Man
# Summary of the method: as §1
# [9] = biological target: Man(a1-2)Man(a1-3)[Man(a1-2)Man(a1-6)]Man
# Summary of the method: as §1
# [10] = biological target: Man(a1-2)Man(a1-3)[Man(a1-2)Man(a1-6)]Man(a1-6)[Man(a1-2)Man(a1-2)Man(a1-3)]Man
# Summary of the method: as §1
# [11] = biological target: Man(a1-2)Man(a1-3)[Man(a1-2)Man(a1-6)]Man(a1-6)[Man(a1-2)Man(a1-2)Man(a1-3)]Man(b1-4)GlcNAc(b1-4)GlcNAc
# Summary of the method: as §1
# [12] = biological target: Man(a1-2)Man(a1-3)[Man(a1-6)]Man(a1-6)[Man(a1-2)Man(a1-3)]Man(b1-4)GlcNAc(b1-4)GlcNAc
# Summary of the method: as §1
# [13] = biological target: Man(a1-2)Man(a1-6)[Man(a1-3)]Man(a1-6)[Man(a1-2)Man(a1-2)Man(a1-3)]Man
# Summary of the method: as §1
# [14] = biological target: Man(a1-2)Man(a1-6)[Man(a1-3)]Man(a1-6)[Man(a1-2)Man(a1-2)Man(a1-3)]Man(b1-4)GlcNAc(b1-4)GlcNAc
# Summary of the method: as §1
# [15] = biological target: Man(a1-3)[Man(a1-6)]Man
# Summary of the method: as §1
# [16] = biological target: Man(a1-3)[Man(a1-6)]Man(a1-6)[Man(a1-2)Man(a1-3)]Man(b1-4)GlcNAc(b1-4)GlcNAc
# Summary of the method: as §1
# [17] = biological target: Man(a1-3)[Man(a1-6)]Man(a1-6)[Man(a1-3)]Man
# Summary of the method: as §1
# [18] = biological target: Man(a1-3)[Man(a1-6)]Man(a1-6)[Man(a1-3)]Man(b1-4)GlcNAc(b1-4)GlcNAc
# Summary of the method: as §1
# [19] = biological target: Man(a1-3)[Man(a1-6)]Man(b1-4)GlcNAc(b1-4)GlcNAc
# Summary of the method: as §1
# [20] = biological target: Man(a1-3)[Man(a1-6)]Man(b1-4)GlcNAc(b1-4)[Fuc(a1-6)]GlcNAc
# Summary of the method: as §1
# [21] = biological target: Man(a1-6)Man
# Summary of the method: as §1
# [22] = biological target: Man(b1-4)GlcNAc
# Summary of the method: as §1
# [23] = biological target: MurNAc(b1-4)GlcNAc
# Summary of the method: as §1
# [24] = biological target: Neu5Ac(a2-3)Gal
# Summary of the method: as §1
# [25] = biological target: Neu5Ac(a2-3)Gal(b1-3)GalNAc
# Summary of the method: as §1
# [26] = biological target: Neu5Ac(a2-3)Gal(b1-3)GalNAc(b1-3)Gal(a1-4)Gal(b1-4)Glc
# Summary of the method: as §1
# [27] = biological target: Neu5Ac(a2-3)Gal(b1-3)GalNAc(b1-4)Gal(b1-4)Glc
# Summary of the method: as §1
# [28] = biological target: Neu5Ac(a2-3)Gal(b1-3)GalNAc(b1-4)[Neu5Ac(a2-3)]Gal(b1-4)Glc
# Summary of the method: as §1
# [29] = biological target: Neu5Ac(a2-3)Gal(b1-3)GalNAc(b1-4)[Neu5Ac(a2-8)Neu5Ac(a2-3)]Gal(b1-4)Glc
# Summary of the method: as §1
# [30] = biological target: Neu5Ac(a2-3)Gal(b1-3)GalNAc6S
# Summary of the method: as §1
# [31] = biological target: Neu5Ac(a2-3)Gal(b1-3)GlcNAc
# Summary of the method: as §1
# [32] = biological target: Neu5Ac(a2-3)Gal(b1-3)GlcNAc(b1-2)Man
# Summary of the method: as §1
# [33] = biological target: Neu5Ac(a2-3)Gal(b1-3)GlcNAc(b1-2)Man(a1-3)[GlcNAc(b1-4)][Neu5Ac(a2-3)Gal(b1-3)GlcNAc(b1-2)Man(a1-6)]Man(b1-4)GlcNAc(b1-4)GlcNAc
# Summary of the method: as §1
# [34] = biological target: Neu5Ac(a2-3)Gal(b1-3)GlcNAc(b1-2)Man(a1-3)[Neu5Ac(a2-3)Gal(b1-3)GlcNAc(b1-2)Man(a1-6)]Man(b1-4)GlcNAc(b1-4)GlcNAc
# Summary of the method: as §1
# [35] = biological target: Neu5Ac(a2-3)Gal(b1-3)GlcNAc(b1-2)[Neu5Ac(a2-3)Gal(b1-3)GlcNAc(b1-4)]Man(a1-6)[Neu5Ac(a2-3)Gal(b1-3)GlcNAc(b1-2)Man(a1-3)]Man(b1-4)GlcNAc(b1-4)GlcNAc
# Summary of the method: as §1
# [36] = biological target: Neu5Ac(a2-3)Gal(b1-3)GlcNAc(b1-3)Gal(b1-3)GlcNAc
# Summary of the method: as §1
# [37] = biological target: Neu5Ac(a2-3)Gal(b1-3)GlcNAc(b1-3)Gal(b1-4)GlcNAc
# Summary of the method: as §1
# [38] = biological target: Neu5Ac(a2-3)Gal(b1-3)GlcNAc(b1-3)GalNAc
# Summary of the method: as §1
binder,measurement,setting,value
"PVL (Psathyrella velutina), Q309D1_9AGAR (protein) MSVVVISQALPVPTRIPGVADLVGFGNGGVYIIRNSLLIQVVKVINNFGYDAGGWRVEKHVRLLADTTGDNQPDVVGFGENGVWISTNNGNNTFVDPPKMVLANFAYAAGGWRVEKHIRFMADLRKTGRADIVGFGDGGIYISRNNGGGQFAPAQLALNNFGYAQGWRLDRHLRFLADVTGDGLLDVVGFGENQVYIARNSGNGTFQPAQAVVNNFCIGAGGWTISAHPRVVADLTGDRKADILGFGVAGVYTSLNNGNGTFGAVNLVLKDFGVNSGWRVEKHVRCVSSLTNKKVGDIIGFGDAGVYVALNNGNGTFGPVKRVIDNFGYNQGWRVDKHPRFVVDLTGDGCADIVGFGENSVWACMNKGDGTFGPIMKLIDDMTVSKGWTLQKTVRYAANLYL",glycan array binding signal (z-score),[1],-0.359
same,glycan array binding signal (z-score),[2],-0.365
same,glycan array binding signal (z-score),[3],-0.363
same,glycan array binding signal (z-score),[4],-0.363
same,glycan array binding signal (z-score),[5],-0.356
same,glycan array binding signal (z-score),[6],-0.369
same,glycan array binding signal (z-score),[7],-0.366
same,glycan array binding signal (z-score),[8],-0.358
same,glycan array binding signal (z-score),[9],-0.376
same,glycan array binding signal (z-score),[10],-0.367
same,glycan array binding signal (z-score),[11],-0.373
same,glycan array binding signal (z-score),[12],-0.32
same,glycan array binding signal (z-score),[13],-0.354
same,glycan array binding signal (z-score),[14],-0.37
same,glycan array binding signal (z-score),[15],-0.366
same,glycan array binding signal (z-score),[16],-0.318
same,glycan array binding signal (z-score),[17],-0.36
same,glycan array binding signal (z-score),[18],-0.36
same,glycan array binding signal (z-score),[19],-0.241
same,glycan array binding signal (z-score),[20],-0.354
same,glycan array binding signal (z-score),[21],-0.36
same,glycan array binding signal (z-score),[22],-0.358
same,glycan array binding signal (z-score),[23],0.43
same,glycan array binding signal (z-score),[24],-0.341
same,glycan array binding signal (z-score),[25],-0.285
same,glycan array binding signal (z-score),[26],-0.34
same,glycan array binding signal (z-score),[27],-0.361
same,glycan array binding signal (z-score),[28],-0.206
same,glycan array binding signal (z-score),[29],-0.358
same,glycan array binding signal (z-score),[30],-0.235
same,glycan array binding signal (z-score),[31],-0.331
same,glycan array binding signal (z-score),[32],-0.316
same,glycan array binding signal (z-score),[33],-0.365
same,glycan array binding signal (z-score),[34],-0.362
same,glycan array binding signal (z-score),[35],-0.062
same,glycan array binding signal (z-score),[36],-0.215
same,glycan array binding signal (z-score),[37],-0.208
same,glycan array binding signal (z-score),[38],-0.336
